Experimental data from the supplement of paper PMC3334620.
In all, about 33,000 sequences were measured (“E-score (-0.5 to 0.5)”: median about -0.013, highest 2% from about 0.3 on). Some of the results follow.

Molecular target: T1, Msn1 (UniProt P22148)
T1 sequence: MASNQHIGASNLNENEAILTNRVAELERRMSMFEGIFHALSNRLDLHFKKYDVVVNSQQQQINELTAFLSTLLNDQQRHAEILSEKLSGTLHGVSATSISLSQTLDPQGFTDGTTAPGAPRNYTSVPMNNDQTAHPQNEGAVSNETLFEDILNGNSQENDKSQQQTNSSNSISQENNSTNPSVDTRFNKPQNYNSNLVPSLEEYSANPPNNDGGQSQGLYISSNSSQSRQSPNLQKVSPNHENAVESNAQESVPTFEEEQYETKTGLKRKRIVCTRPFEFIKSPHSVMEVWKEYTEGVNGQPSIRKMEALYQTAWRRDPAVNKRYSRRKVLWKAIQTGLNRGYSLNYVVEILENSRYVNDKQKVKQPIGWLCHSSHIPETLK
Assay: PBM E-score (8-mer binding enrichment) (E-score (-0.5 to 0.5)); higher = stronger / more preferred TF binding; most listed sequences are background and not binding sites
Conditions: protein concentration: 200 nM; construct: GST-full length
Outline: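 Universal all-10-mer Agilent arrays, fresh or stripped once, were converted to double-stranded form by primer extension. GST-tagged yeast transcription factors from PURExpress in vitro transcription/translation, full-length or DNA-binding domain only, were applied at about 100-200 nM and detected with fluorescent anti-GST. After masliner normalisation, the Universal PBM Analysis Suite scored each ungapped eight-base word together with its reverse complement by E-score.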

Sequence	PBM E-score
ATCGATCA	0.0526
ACAGAAGT	0.109
CCATGGAC	0.252
CCGTAAAC	-0.0692
GCCAGCCC	-0.319
AGGCGACC	-0.0909
GATCATCA	-0.0872
CGCCGATA	0.112
ACGCCTCT	-0.177
ACGAAGGC	-0.198
ACCGAAGC	0.0707
ATCGCGCG	0.0316
CCGCAGGA	-0.352
CGAGCCTC	-0.168
AGCACGCT	-0.279
ACTCTACA	-0.115
CACTCCGA	-0.0486
TCCATGCA	-0.00339
TCATTAAA	0.251
CTTACGTC	-0.0829
AAAGGTCG	-0.0994
TCTTAAAA	0.199

Sequence	PBM E-score
GTTATGGA	0.136
CTTAGTAA	0.16
ACGAAGGA	-0.0295
ACTGTAGG	0.0398
AGCTGTAT	-0.0176
GGACGCGA	0.0612
TAGCAACA	0.0526
CCGCTAGC	-0.292
ACCTTACC	0.0657
GAATAGCC	-0.116
GAAGGACC	-0.139
ACGGCGTG	-0.0469
AGTGGTTG	0.102
CGAGTTTC	-0.0216
AATAGGCA	-0.0523
GAGGCTAC	-0.23
ATGAACAA	9e-05
AACAGCGA	-0.216
AGTGCTTG	-0.0627
CGAATGTC	0.386
ATTTGCCG	0.136
AACATACG	0.0695

Sequence	PBM E-score
CTCTCCTA	-0.316
ACCAATAG	-0.0153
CCTCTGCC	-0.177
AAGCACCA	-0.0725
AATGCCCG	-0.182
CATGGCTC	-0.0129
GGTCAAAA	0.135
CCCAGGGC	-0.41
CATGTGAA	-0.0733
CCAATGTC	0.328
ACCGGACC	0.025
GGGCCAAC	-0.0687
CTTTGGCA	-0.261
AAAAGGAA	0.123
AACAGGAT	-0.0582
CTACCTAA	0.0698
GGAATGTA	0.0976
GACTCTGC	-0.155
AAAACTAC	0.21
AGCTGGAC	0.135
ACCGACCT	-0.0954
CTCCACGC	-0.162

Sequence	PBM E-score
CCCTAGTA	-0.0771
AGGGTGGC	-0.0215
CGCTCGAG	0.195
GCGTCCCC	-0.251
CATGGTGA	-0.0652
ACTCGCCT	-0.0305
GACTGAGA	0.092
CTACTCCA	-0.234
GCTACTTA	-0.258
ATGGCGTA	0.0141
ACTAACGG	-0.0137
GATAACAA	-0.0321
GATGGCCC	-0.219
GAAGACTA	-0.0534
CTCGCAGC	-0.0721
CGACATAA	0.286
GAAGTTGC	-0.15
ACCGATGG	0.00303
AGCTATAC	-0.234
ACGTGTTG	0.0865
